# Results as given in PubChem BioAssay AID662 (National Center for Advancing Translational Sciences (NCATS), 2007).
# Hit rate of the full screen: of about 71,000 compounds, about 1,800 (2.5%) were called active. Inconclusive means that the source gave no clear call. Such entries were picked first, then a sample of the others. Calls come from the whole dose curve; as a rule, active = well fitted activation curve with a large enough effect in the signal ratio, with a control signal flat (not every such curve was filed as active); inconclusive = small, poorly fitted or top-dose-only effect, or effect the other way, or a change in a side signal; inactive = flat fitted curve, though single readings scatter; the % refers to the signal ratio. Potencies beside an inconclusive call are fits to weak or partial responses and may not hold up.
# Experiment: Cell signaling CRE-BLA (Fsk stim); for activity change, negative = inhibition: % of control where 0% means no effect
# Conditions: CHO CRE-bla reporter (cAMP response element driving beta-lactamase), forskolin EC10, beta-lactamase ratio; activity change, negative = inhibition: at 38.2 µM (top of the series) unless noted
# Outline: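 The 460nm/530nm emission ratio after CCF4 loading defined %Activity, from which AC50 values were obtained. CRE-bla CHO cells received compound dilution series together with an EC10 level of NKH 477 for 3 hours at 37 degrees Celsius.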
# Potency is the fitted concentration of half-maximal effect; tags give direction and shape of the fitted curve.
SMILES,Potency,"activity change, negative = inhibition"
CCn1c(=O)c2c(nc3n2CC(C)CN3CCc2ccccc2)n(C)c1=O (centres undefined),active: 6.31 µM,–
O=C(c1cccc(Cl)c1)N1CCN(c2ccccn2)CC1,–,inconclusive: -1.42%
CC(=O)NCCNc1nc(-c2ccc(C(=O)N(C)C)cc2)nc2ccccc12,"inconclusive: 12.6 µM [rising, single point]",–
COc1ccc(C(=O)Nc2cccc(C(=O)N3CCN(C)CC3)c2)cc1,–,inconclusive: 8.39%
COc1ccc(/C=N/n2cnnc2SCc2ccc(OC)cc2)cc1,–,inconclusive: 24.6%
CC1(C)OC(C(N)=O)C(C(N)=O)O1 (centres undefined),–,inconclusive: -7.35%
Cc1oc2nc(SCC(=O)NC3CCCCC3)nc(N)c2c1C,active: 12.6 µM,–
CCC(c1nnnn1C(C)(C)CC)N(CCCO)Cc1cc2cc(C)cc(C)c2[nH]c1=O (centres undefined),–,inactive: 7.31%
COC(=O)[C@@]1(Cc2ccccc2)[C@H]2c3cc(C(=O)N4CCCC4)n(Cc4ccc(OC)c(OC)c4)c3C[C@H]2CN1C(=O)c1ccccc1,–,inconclusive: 8.4%
Cn1cc(/C=N/n2cnc3scc(-c4ccc(Cl)cc4)c3c2=O)c2ccccc21,active: 1 µM,–
Cc1cc(SCNC(=O)c2ccccc2)ncn1,–,inactive: 6.04%
CC(=O)Nc1ccc(-c2nn[nH]n2)cc1Cl,–,inconclusive: 10.5%
CCOC(=O)c1ccc(NC(=O)NS(=O)(=O)c2ccc(C)cc2)cc1,–,inactive: -0.219%
COc1ccc(C(C)=O)cc1COC(=O)Cn1cnc2ccccc2c1=O,–,inconclusive: 16.3%
CCNc1ncc2nc(-c3cccs3)c(=O)n(CCc3ccccc3)c2n1,"inconclusive: 0.501 µM [rising, full curve]",–
C#CCOC(=O)c1ccccc1C(=O)n1nnc2ccccc21,"inconclusive: 2.51 µM [falling, full curve]",–
CCn1c(SCC(N)=O)nnc1-c1cc2c(C)nn(-c3ccccc3)c2s1,"inconclusive: 6.31 µM [rising, partial curve]",–
CC(=O)Nc1c(I)c(C(=O)N[C@H]2[C@@H](O)[C@H](O)[C@H](CO)O[C@@H]2O)c(I)c(N(C)C(C)=O)c1I,–,inactive: -0.00926% [at 17.1 µM]
O=C1CC(c2cccs2)Cc2nc(NCC3CCCO3)ncc21 (centres undefined),–,inactive: 13.4%
Nc1cc(C(=O)OCC(=O)N2CCCC2)ccc1Cl,–,inactive: 4.9%
Cn1c(NCCCN2CCOCC2)nc2c1c(=O)n(Cc1ccc(Cl)c(Cl)c1)c(=O)n2C,–,inactive: -6.92%
O=c1c(-c2cc(F)cc(F)c2)nc2cnc(N3CCOCC3)nc2n1Cc1ccc(F)cc1,"inconclusive: 5.01 µM [rising, partial curve]",–
COC(=O)c1c(NC(=O)Cc2cccs2)sc(C(=O)N2CCCCC2)c1C,–,inconclusive: 25.4%
CCc1nc(SCC(=O)Nc2c(C)n(C)n(-c3ccccc3)c2=O)n[nH]1,–,inactive: -9.4%
COc1ccc2c(C)cc(=O)oc2c1C,"inconclusive: 12.6 µM [rising, single point]",–
Cc1c(C#N)sc2nc(-c3ccccc3)nc(N3CCCC3)c12,"inconclusive: 1 µM [rising, single point]",–
CCOc1cc(C2C(C(=O)c3ccc(C)cc3)=C(C(=O)OC)Nc3nnnn32)ccc1O (centres undefined),–,inactive: -3.67%

SMILES,Potency,"activity change, negative = inhibition"
CCOC(=O)C1CCCN(c2c(NCCCN(CC)c3cccc(C)c3)c(=O)c2=O)C1 (centres undefined),–,inconclusive: -24.9%
O=C(O)CSCC(=O)c1ccccc1,–,inconclusive: -24.6% [at 7.6 µM]
CC1Cc2nc(SCC(=O)Nc3ccc4c(c3)OCO4)n(CCc3ccccc3)c(=O)c2S1 (centres undefined),–,inconclusive: 27.5%
C#CCSc1nnc(-c2cccc3ccccc23)o1,–,inactive: 4.83%
CCOC(=O)c1c(C)c(C(=O)Nc2ccc3c(c2)OCCO3)c(C)n1C,–,inactive: 10.8%
C[C@@H]1C=C[C@](Cc2ccccc2)(C(=O)NCCN2CCOCC2)N1C(=O)c1ccccc1,–,inactive: -1.93%
Cc1cc(C)c2[nH]c(=O)c(CN(CC3CCCO3)C(=O)c3cnccn3)cc2c1 (centres undefined),–,inconclusive: -9.26%
CCCOc1ccc(N2CC(C(=O)NC(C)C)CC2=O)cc1 (centres undefined),–,inactive: -2%
CC(=O)C1=C(O)C(=O)N(CCN2CCOCC2)C1c1ccc(N(C)C)cc1 (centres undefined),–,inactive: -1.25%
COc1ccc(Nc2ccccc2)c(C)c1,"inconclusive: 12.6 µM [rising, single point]",–
O=C1c2ccccc2C(=O)N1CCSc1nnc(-c2ccco2)n1Cc1ccccc1,–,inconclusive: 0.861%
CCOC(=O)NC(CC(=O)O)c1ccc(OC)cc1 (centres undefined),–,inactive: -7.65%
CCn1c(SCCOc2ccc(Cl)cc2)nnc1-c1cccs1,–,inactive: -1.68%
COc1ccc(-n2c(=O)c(-c3cn(C)c4ccccc34)nc3cnc(N4CCNCC4)nc32)cc1,"inconclusive: 2 µM [rising, full curve]",–
CCCN[C@@H](C)C(=O)Nc1ccccc1C,–,inactive
CCNC(=O)CC1C(=O)N(c2ccc(F)cc2)C(=O)N1Cc1ccc(OC)cc1 (centres undefined),–,inconclusive: 7.6%
C=CCOc1c(Br)cc(CNn2nnnc2N)cc1OC,–,inactive: -7.76%
CCN(CC)C(=O)CSc1nc(C)cc(-c2cccs2)c1C#N,–,inconclusive: 25.7%
Cc1cc2cc(CN(Cc3ccc4c(c3)OCO4)C(=O)c3cnccn3)c3nnnn3c2cc1C,–,inconclusive: 3.21%
COC(=O)C1=C(C)N=c2s/c(=C3\C(=O)Nc4ccccc43)c(=O)n2C1c1ccccc1 (centres undefined),"inconclusive: 2 µM [rising, single point]",–
COC(=O)C1=C(C)Nc2ncnn2C1c1ccccn1 (centres undefined),–,inconclusive: 0.79%
CN(C)c1ccnc(-c2cccc(NS(C)(=O)=O)c2)n1,–,inconclusive: 26.1%
O=C(Cc1cc(=O)[nH]c(=O)[nH]1)NCC1CCCO1 (centres undefined),"inconclusive: 5.01 µM [falling, single point]",–
CN(CCc1ccccn1)S(=O)(=O)c1ccc2c3c(cccc13)C(=O)N2,–,inconclusive: 19.2%
C=CCn1c(SCC(=O)Nc2ccc(C(=O)OCC)cc2)nnc1-c1sc(N)nc1C,–,inactive: 1.35%
CCc1ccccc1NC(=O)Cn1nnc(-c2cccs2)n1,"inconclusive: 3.98 µM [falling, single point]",–
CN(C)CCCn1c2c3ccccc3ccc2c2oc(=O)c3ccccc3c21,–,inconclusive: 21.8% [at 7.6 µM]
